In all, about 81,000 sequences were measured (“one-hybrid fitness for binding parS DNA”: median about -0.17, highest 2% from about 0.51 on). Some of the results follow.

B1: Caulobacter ParB omega fusion; a variant is named by its letters at X, in order, B8GW30 (parent)
chain: MESVVVGEPGMSEGRRGLGRGLSALLGEVDAAPAQAPGEQLGGSREAPIEILQRNPDQPRRTFREEDLEDLSNSIREKGVLQPILVRPSPDTAGEYQIVAGERAWRAAQRAGLKTVPIMVRELDDLAVLEIGIIENVQRADLNVLEEALSYKVLMEKFERTQENIAQTIGKSXSHVANXMRLLXLPDEVQSYLVSGELTAXHARAIAAAADPVALAKQIIEGGLSVRETEALARKAPNLSAGKSKGGRPPRVKDTDTQALESDLSSVLGLDVSIDHRGSTGTLTITYATLEQLDDLCNRLTRGI

The variants in this assay derive from B1. Kind of assay: one-hybrid fitness for binding parS DNA (scaled: cognate 1, non-cognate 0); higher = stronger binding. Particulars: with parS DNA site. Put shortly: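 Values were rescaled so that cognate is 1 and non-cognate is 0. Each is a fitness, the log change in a variant's read ratio to wild type from Illumina reads of plasmids before and after selection, with three replicate libraries pooled and variants under 10 reads dropped. Selection of the Caulobacter ParB libraries, four specificity codons randomised, used E. coli USO with a HIS3 reporter, site 19 bp from the promoter, on M9-minus-histidine with 0.1 mM IPTG and 5 mM 3-AT for 48 hours at 37°C.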
Turning to FANW, the “one-hybrid fitness for binding parS DNA” value was not above 0.2.

For YNRR, the “one-hybrid fitness for binding parS DNA” value is not above 0.2.

As to HCLN, the “one-hybrid fitness for binding parS DNA” value was not above 0.2.

As to SRNF, the “one-hybrid fitness for binding parS DNA” value was not above 0.2.

On to TMLF, for which the “one-hybrid fitness for binding parS DNA” value is not above 0.2.

As to NGGA, the “one-hybrid fitness for binding parS DNA” value worked out at 0.325.

For the variant ERVE, the “one-hybrid fitness for binding parS DNA” value was not above 0.2.

On to VDPN, for which the “one-hybrid fitness for binding parS DNA” value is not above 0.2.

On to QRNA, for which the “one-hybrid fitness for binding parS DNA” value is not above 0.2.

For the variant VSTY, the “one-hybrid fitness for binding parS DNA” value is not above 0.2.

As to PSTY, the “one-hybrid fitness for binding parS DNA” value was not above 0.2.

Take PRLN: the “one-hybrid fitness for binding parS DNA” value was not above 0.2.

As for KWWG, the “one-hybrid fitness for binding parS DNA” value is not above 0.2.

Turning to WQPR, the “one-hybrid fitness for binding parS DNA” value is not above 0.2.

KQPI: the “one-hybrid fitness for binding parS DNA” value is not above 0.2.

Take PNPD: the “one-hybrid fitness for binding parS DNA” value was not above 0.2.

For the variant LSCC, the “one-hybrid fitness for binding parS DNA” value was not above 0.2.

For MVKV, the “one-hybrid fitness for binding parS DNA” value is not above 0.2.

With SYEV, the “one-hybrid fitness for binding parS DNA” value was not above 0.2.

Take AKHW: the “one-hybrid fitness for binding parS DNA” value was not above 0.2.

As to RNEK, the “one-hybrid fitness for binding parS DNA” value was not above 0.2.

For RQNF, the “one-hybrid fitness for binding parS DNA” value stood at 0.216.

Take TGAL: the “one-hybrid fitness for binding parS DNA” value is not above 0.2.

With TFNM, the “one-hybrid fitness for binding parS DNA” value was not above 0.2.

With QSFE, the “one-hybrid fitness for binding parS DNA” value was not above 0.2.

TGYF: the “one-hybrid fitness for binding parS DNA” value was not above 0.2.

Regarding GKTI, the “one-hybrid fitness for binding parS DNA” value was not above 0.2.

VPNK: the “one-hybrid fitness for binding parS DNA” value was not above 0.2.

PINE: the “one-hybrid fitness for binding parS DNA” value is not above 0.2.

As for TPLP, the “one-hybrid fitness for binding parS DNA” value was not above 0.2.

KKVT: the “one-hybrid fitness for binding parS DNA” value was not above 0.2.

As to EFAA, the “one-hybrid fitness for binding parS DNA” value is not above 0.2.

With LMQT, the “one-hybrid fitness for binding parS DNA” value is not above 0.2.

QHGE: the “one-hybrid fitness for binding parS DNA” value is not above 0.2.

Turning to FSLT, the “one-hybrid fitness for binding parS DNA” value is not above 0.2.

Turning to PWVD, the “one-hybrid fitness for binding parS DNA” value was not above 0.2.

Consider YSME, for which the “one-hybrid fitness for binding parS DNA” value was not above 0.2.

Turning to AMRT, the “one-hybrid fitness for binding parS DNA” value was not above 0.2.

Turning to QRWF, the “one-hybrid fitness for binding parS DNA” value was not above 0.2.

On to ENQI, for which the “one-hybrid fitness for binding parS DNA” value is not above 0.2.

Regarding DRQR, the “one-hybrid fitness for binding parS DNA” value was not above 0.2.

As for GMDI, the “one-hybrid fitness for binding parS DNA” value was not above 0.2.

Turning to PGHQ, the “one-hybrid fitness for binding parS DNA” value is not above 0.2.

On to ECMV, for which the “one-hybrid fitness for binding parS DNA” value was not above 0.2.

For the variant RNVG, the “one-hybrid fitness for binding parS DNA” value was 0.619.

Regarding PMRP, the “one-hybrid fitness for binding parS DNA” value is not above 0.2.

For the variant AFMC, the “one-hybrid fitness for binding parS DNA” value is not above 0.2.

As for NAYR, the “one-hybrid fitness for binding parS DNA” value was not above 0.2.

Consider NENV, for which the “one-hybrid fitness for binding parS DNA” value is not above 0.2.

In the case of NINL, the “one-hybrid fitness for binding parS DNA” value is not above 0.2.

As for FNDS, the “one-hybrid fitness for binding parS DNA” value is not above 0.2.

For the variant EIGR, the “one-hybrid fitness for binding parS DNA” value was not above 0.2.

As to VWTN, the “one-hybrid fitness for binding parS DNA” value was not above 0.2.

On to TAES, for which the “one-hybrid fitness for binding parS DNA” value is not above 0.2.

On to KEIS, for which the “one-hybrid fitness for binding parS DNA” value was not above 0.2.

Consider NCTR, for which the “one-hybrid fitness for binding parS DNA” value is not above 0.2.

Take ALTF: the “one-hybrid fitness for binding parS DNA” value was not above 0.2.

As for ELVV, the “one-hybrid fitness for binding parS DNA” value is not above 0.2.

On to QGHV, for which the “one-hybrid fitness for binding parS DNA” value was not above 0.2.

Turning to QYLF, the “one-hybrid fitness for binding parS DNA” value is not above 0.2.

With FHAG, the “one-hybrid fitness for binding parS DNA” value was not above 0.2.

On to CEPP, for which the “one-hybrid fitness for binding parS DNA” value is not above 0.2.

Regarding YPLP, the “one-hybrid fitness for binding parS DNA” value is not above 0.2.

On to RRNR, for which the “one-hybrid fitness for binding parS DNA” value was not above 0.2.

Turning to APHQ, the “one-hybrid fitness for binding parS DNA” value was not above 0.2.

Regarding YLDD, the “one-hybrid fitness for binding parS DNA” value was not above 0.2.

WLEY: the “one-hybrid fitness for binding parS DNA” value was not above 0.2.

Consider MNRA, for which the “one-hybrid fitness for binding parS DNA” value is not above 0.2.

Regarding PEAF, the “one-hybrid fitness for binding parS DNA” value is not above 0.2.

With CYPF, the “one-hybrid fitness for binding parS DNA” value was not above 0.2.

Regarding TLLR, the “one-hybrid fitness for binding parS DNA” value was not above 0.2.

RCQY: the “one-hybrid fitness for binding parS DNA” value amounted to 0.493.

Consider EAYD, for which the “one-hybrid fitness for binding parS DNA” value is not above 0.2.

CGGR: the “one-hybrid fitness for binding parS DNA” value was not above 0.2.

Take LDYG: the “one-hybrid fitness for binding parS DNA” value is not above 0.2.

As to WQKR, the “one-hybrid fitness for binding parS DNA” value is not above 0.2.

TTMR: the “one-hybrid fitness for binding parS DNA” value is not above 0.2.

Turning to GNDL, the “one-hybrid fitness for binding parS DNA” value was not above 0.2.

SYNG: the “one-hybrid fitness for binding parS DNA” value was not above 0.2.

Consider NETS, for which the “one-hybrid fitness for binding parS DNA” value is not above 0.2.

With RVIY, the “one-hybrid fitness for binding parS DNA” value is 0.394.

As to CMDR, the “one-hybrid fitness for binding parS DNA” value was not above 0.2.

On to QETD, for which the “one-hybrid fitness for binding parS DNA” value was not above 0.2.

Consider KYGS, for which the “one-hybrid fitness for binding parS DNA” value was not above 0.2.

With CPPG, the “one-hybrid fitness for binding parS DNA” value was not above 0.2.

With PRLG, the “one-hybrid fitness for binding parS DNA” value was not above 0.2.

For the variant LNNE, the “one-hybrid fitness for binding parS DNA” value was not above 0.2.

Turning to AKHV, the “one-hybrid fitness for binding parS DNA” value was not above 0.2.

Consider SMVC, for which the “one-hybrid fitness for binding parS DNA” value is not above 0.2.

For the variant SGFC, the “one-hybrid fitness for binding parS DNA” value was not above 0.2.

In the case of ALKV, the “one-hybrid fitness for binding parS DNA” value was not above 0.2.

On to DWKE, for which the “one-hybrid fitness for binding parS DNA” value is not above 0.2.

As for TDQA, the “one-hybrid fitness for binding parS DNA” value was not above 0.2.

Consider PIRV, for which the “one-hybrid fitness for binding parS DNA” value is not above 0.2.

As to PKLN, the “one-hybrid fitness for binding parS DNA” value was not above 0.2.

For the variant ALCR, the “one-hybrid fitness for binding parS DNA” value is not above 0.2.

RMHW: the “one-hybrid fitness for binding parS DNA” value was determined as 0.256.

For QDQP, the “one-hybrid fitness for binding parS DNA” value is not above 0.2.

Take QCNV: the “one-hybrid fitness for binding parS DNA” value was not above 0.2.

On to IGCG, for which the “one-hybrid fitness for binding parS DNA” value is not above 0.2.

With VFSF, the “one-hybrid fitness for binding parS DNA” value is not above 0.2.

For the variant PCRT, the “one-hybrid fitness for binding parS DNA” value was not above 0.2.

With QEQS, the “one-hybrid fitness for binding parS DNA” value is not above 0.2.

Consider YKRY, for which the “one-hybrid fitness for binding parS DNA” value was not above 0.2.

In the case of AMDR, the “one-hybrid fitness for binding parS DNA” value was not above 0.2.

For PYQA, the “one-hybrid fitness for binding parS DNA” value was not above 0.2.

PQPY: the “one-hybrid fitness for binding parS DNA” value was not above 0.2.

Take WSLQ: the “one-hybrid fitness for binding parS DNA” value is not above 0.2.

HKYT: the “one-hybrid fitness for binding parS DNA” value was not above 0.2.

As for CYDS, the “one-hybrid fitness for binding parS DNA” value was not above 0.2.

As for GWYG, the “one-hybrid fitness for binding parS DNA” value was not above 0.2.

With PYQG, the “one-hybrid fitness for binding parS DNA” value is not above 0.2.

Regarding SDYI, the “one-hybrid fitness for binding parS DNA” value is not above 0.2.

On to NTKP, for which the “one-hybrid fitness for binding parS DNA” value is not above 0.2.

Consider VCMM, for which the “one-hybrid fitness for binding parS DNA” value is not above 0.2.

GWMV: the “one-hybrid fitness for binding parS DNA” value is not above 0.2.

On to VPDT, for which the “one-hybrid fitness for binding parS DNA” value is not above 0.2.

FWTR: the “one-hybrid fitness for binding parS DNA” value was not above 0.2.

For the variant CNWS, the “one-hybrid fitness for binding parS DNA” value was not above 0.2.

For TSKT, the “one-hybrid fitness for binding parS DNA” value was not above 0.2.

Consider TIFR, for which the “one-hybrid fitness for binding parS DNA” value is not above 0.2.

For QGGC, the “one-hybrid fitness for binding parS DNA” value is not above 0.2.

Turning to LMYA, the “one-hybrid fitness for binding parS DNA” value is not above 0.2.

Take HRAN: the “one-hybrid fitness for binding parS DNA” value is not above 0.2.

In the case of TQFI, the “one-hybrid fitness for binding parS DNA” value is not above 0.2.

Regarding FFNM, the “one-hybrid fitness for binding parS DNA” value was not above 0.2.

For the variant SVNM, the “one-hybrid fitness for binding parS DNA” value was not above 0.2.

In the case of YESV, the “one-hybrid fitness for binding parS DNA” value was not above 0.2.

On to NHQM, for which the “one-hybrid fitness for binding parS DNA” value is not above 0.2.

Take PRLD: the “one-hybrid fitness for binding parS DNA” value was not above 0.2.

Consider PWAM, for which the “one-hybrid fitness for binding parS DNA” value is not above 0.2.

As for DQPY, the “one-hybrid fitness for binding parS DNA” value was not above 0.2.

Turning to THIW, the “one-hybrid fitness for binding parS DNA” value is not above 0.2.

RTRT: the “one-hybrid fitness for binding parS DNA” value amounted to 0.747.

In the case of DWQR, the “one-hybrid fitness for binding parS DNA” value is not above 0.2.

Consider HAGY, for which the “one-hybrid fitness for binding parS DNA” value is not above 0.2.

On to EAAG, for which the “one-hybrid fitness for binding parS DNA” value was not above 0.2.

As to ESGR, the “one-hybrid fitness for binding parS DNA” value is not above 0.2.

Regarding AIAG, the “one-hybrid fitness for binding parS DNA” value is not above 0.2.

For the variant FRYF, the “one-hybrid fitness for binding parS DNA” value was not above 0.2.

Take ATVK: the “one-hybrid fitness for binding parS DNA” value is not above 0.2.

In the case of PLKE, the “one-hybrid fitness for binding parS DNA” value is not above 0.2.

Consider WKQT, for which the “one-hybrid fitness for binding parS DNA” value is not above 0.2.

As to SEMS, the “one-hybrid fitness for binding parS DNA” value was not above 0.2.

Consider HSWI, for which the “one-hybrid fitness for binding parS DNA” value was not above 0.2.

Take PEMH: the “one-hybrid fitness for binding parS DNA” value was not above 0.2.

In the case of QRML, the “one-hybrid fitness for binding parS DNA” value is not above 0.2.

SYSD: the “one-hybrid fitness for binding parS DNA” value was not above 0.2.

Take KRAT: the “one-hybrid fitness for binding parS DNA” value was not above 0.2.

In the case of RMWG, the “one-hybrid fitness for binding parS DNA” value came out at 0.991.

DHCV: the “one-hybrid fitness for binding parS DNA” value was not above 0.2.

Consider LGLG, for which the “one-hybrid fitness for binding parS DNA” value is not above 0.2.

Turning to QLMW, the “one-hybrid fitness for binding parS DNA” value was not above 0.2.

(Values after a collection of fitness landscapes (doi:10.1016/j.celrep.2020.107928).)
